Test results published in PubChem BioAssay AID504832 (National Center for Advancing Translational Sciences (NCATS), 2011).
Values joined by “and” are separate entries in the source; they are usually repeats but may differ in a detail not shown here. Equal entries are not always repeated. Out of some 310,000 compounds screened, about 18,000 (5.8%) were called active. Inconclusive results, whose numbers are uncertain, are shown with a selection of clear calls. The call rests on the fitted dose curve; in most records, active means well fitted inhibition curve with a large enough effect; inconclusive means small, poorly fitted or top-dose-only effect, or another doubt; inactive means no such curve, though single readings can be large or run the other way. Potencies of inconclusive entries are left out as doubtful fits. A structure can be active in one record and inactive in another.

Assay: Primary qHTS for delayed death inhibitors of the malarial parasite plastid, 48 hour incubation
Details: P. falciparum luciferase growth in erythrocytes; series mostly up to 28.7 µM
Procedure, shortened: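 Luminescence readout; reporter = integrated firefly luciferase in P. falciparum. RBC culture at 2% hematocrit, 0.1% parasitemia final, 37 C/5% CO2; decreased signal taken as growth inhibition.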
On the % scale 0 is the no-effect control and ±100 the full control effect; potency means the concentration at half of the fitted maximal effect; tags describe the fitted curve by direction and shape.

| SMILES | Potency | activity change, negative = inhibition |
| --- | --- | --- |
| C=C(C)COc1ccc(-c2n[nH]c(C)c2-c2ccc(OC)c(OC)c2)c(O)c1 | inconclusive [inhibitor, full curve] |  |
| Cc1ccc(S(=O)(=O)N2[C@@H](c3ccc(Cl)cc3)C(C(=O)O)=CC[C@H]2c2cccs2)cc1 | inconclusive [inhibitor, single point] |  |
| O=S(=O)(/N=C(/Nc1ccccn1)c1ccccc1)c1ccc(F)cc1 | inactive |  |
| CCOC(=O)C1=C(O)/C(=C/c2ccc(OCC(=O)O)c(OCC)c2)SC1=Nc1ccccc1 | inconclusive [inhibitor, single point] |  |
| CC(C)NC(=O)CN(Cc1ccc(F)cc1)C(=O)CCC(=O)Nc1nccs1 | inconclusive [inhibitor, partial curve, poor fit] |  |
| COc1ccc(CCNC(=O)CCS(=O)(=O)c2ccc3c(c2)oc(=O)n3C)cc1OC | inconclusive [inhibitor, partial curve] |  |
| COc1ccc(CCNC(=O)C23CCC(C)(C(=O)O2)C3(C)C)cc1OC (stereo unspecified) | inactive |  |
| O=C(C1=NNCC1c1ccc(Cl)cc1)C1CO1 (stereo unspecified) | inactive |  |
| CCc1ccc(N(CC(=O)Nc2ccccc2C(=O)N2CCOCC2)S(C)(=O)=O)cc1 | inactive |  |
| COC(=O)c1ccccc1NC(=O)CSc1nccn1C | inactive |  |
| Cc1ccc(NC(=O)C(C)SCC(=O)Nc2ccc(F)cc2)cc1S(=O)(=O)N1CCOCC1 (stereo unspecified) | inconclusive [inhibitor, partial curve, poor fit] |  |
| Cc1ccc(CNc2ccc(S(=O)(=O)N3CCOCC3)cc2[N+](=O)[O-])cc1 | inactive |  |
| Cc1nnc(SCC(=O)N2c3ccccc3C(C)(c3ccc(Cl)cc3)CC2(C)C)s1 (stereo unspecified) | active: 10.4 µM |  |
| Cc1ccccc1-c1cc(C(=O)N/N=C/c2cccnc2)c2ccccc2n1 | active: 10.4 µM |  |
| COc1ccc(-n2c(-c3ccco3)nc3c(cnn3-c3ccc(C)cc3)c2=O)cc1 | inconclusive [inhibitor, partial curve, poor fit] |  |
| O=C(NCCCC1CCCC1)C1CCC(=O)N(Cc2cccc(F)c2)C1 (stereo unspecified) | inconclusive [inhibitor, partial curve, poor fit] |  |
| Cc1ccc(NCC(=O)N/N=C/c2cccc(Oc3ccccc3)c2)cc1 | inactive |  |
| CCOc1ccc(CN2CCCC(CO)(Cc3ccccc3F)C2)cc1 (stereo unspecified) | inconclusive [inhibitor, single point] |  |
| O=C(NCCC1=CCCCC1)C1CCN(S(=O)(=O)c2cccc3nsnc23)CC1 | inconclusive [inhibitor, full curve, poor fit] |  |
| Cc1ccc(-c2csc(N/N=C/c3ccco3)n2)cc1 | inconclusive [inhibitor, single point] |  |
| CC1CCCCC12NC(=O)N(CC(=O)Nc1ccc(Cl)c(S(=O)(=O)N3CCOCC3)c1)C2=O (stereo unspecified) | inconclusive [inhibitor, partial curve, poor fit] |  |
| COc1ccc(C)cc1-n1nnnc1SCc1csc(C)n1 | inconclusive [inhibitor, partial curve, poor fit] |  |

| SMILES | Potency | activity change, negative = inhibition |
| --- | --- | --- |
| COc1cc(Nc2ccccn2)cc(C(=O)Nc2cccc(C(F)(F)F)c2)c1 | inconclusive [inhibitor, partial curve, poor fit] |  |
| COc1ccccc1C(CNC(=O)c1oc2ccccc2c1C)N1CCCC1 (stereo unspecified) | inconclusive [inhibitor, single point] |  |
| Cc1sc2ncnc(N3CCC(C(=O)N(CC(C)C)c4nc5ccccc5s4)CC3)c2c1C | inconclusive [inhibitor, partial curve, poor fit] |  |
| COc1ccc(-c2cc3ccccc3n2CC(O)CN2CCC(C)CC2)cc1 (stereo unspecified) | inconclusive [inhibitor, single point] |  |
| Cc1ccc(C(=O)NNC(=O)C2CC2)cc1Br | inactive |  |
| Brc1c(CSc2nc3ccccc3s2)nc2ncccn12 | inactive |  |
| COc1ccccc1NC(=O)CSc1nnc(-c2ccccn2)n1Cc1ccco1 | inconclusive [inhibitor, single point] |  |
| CCN(CC)C(=O)CSc1nc2ccccc2c(=O)n1CCC(=O)N1CCN(c2ccccc2)CC1 | inconclusive [inhibitor, single point] |  |
| N#Cc1cccc(-n2c(-c3ccccc3)nnc2-c2ccccc2)c1C#N | active: 5.22 µM |  |
| CCOc1cc(CNCc2ccccc2)ccc1OCc1ccc(Cl)cc1 | inconclusive [inhibitor, single point] |  |
| COc1ccccc1NC(=S)N1CCN(C(c2ccccc2)c2ccccc2)CC1 | inconclusive [inhibitor, single point] |  |
| O=C(OCC(=O)N1CCc2ccccc2C1)c1ccc(Cl)c([N+](=O)[O-])c1 | inconclusive [inhibitor, single point] |  |
| CCOc1ccc([C@@H]2CC=C(C(=O)O)[C@H](c3ccc(Cl)cc3)N2S(=O)(=O)c2ccc(C)cc2)cc1 | inconclusive [inhibitor, single point] |  |
| CCN(CCCNC(=O)c1cc2cc3ccc(OC)cc3nc2s1)c1ccccc1 | inconclusive [inhibitor, single point] |  |
| Cc1cc(C)c(C)c(OCCOCCN2CCN(C)CC2)c1 | inactive |  |
| CNC(=O)c1c(NC(=O)c2cccc(C)c2)sc2c1CCC2 | inactive |  |
| O=C(NCCOC(=O)c1c(F)cccc1Cl)c1c(F)cccc1Cl | inconclusive [inhibitor, single point] |  |
| C#CCOCCOCCOCCNc1nc(N2CCN(C(=O)[C@H]([C@@H](C)CC)n3cc([C@@H](N)CC(C)C)nn3)CC2)nc(N2CCN(C(=O)[C@H](Cc3cc4ccccc4[nH]3)n3cc([C@@H](N)Cc4ccc(O)cc4)nn3)CC2)n1 | inconclusive [inhibitor, full curve] |  |
| COCCCN(Cc1ccco1)C(=O)Cn1ncc2c([nH]c3ccccc32)c1=O | inconclusive [inhibitor, single point] |  |
| CC(=O)Nc1ccc(NC(=O)Cc2ccc(S(=O)(=O)N3CCCCC3)cc2)cc1 | inconclusive [inhibitor, partial curve] |  |
| COc1ccc(S(=O)(=O)N2Cc3ccccc3CC2C(=O)Nc2ccc(O)cc2)cc1OC (stereo unspecified) | inconclusive [inhibitor, partial curve, poor fit] |  |
| COC(=O)C1=C(C)N(Cc2ccccc2)C(=NCC2CC2)N[C@H]1c1ccccc1 | inactive and active: 9.28 µM |  |

| SMILES | Potency | activity change, negative = inhibition |
| --- | --- | --- |
| COC(=O)Cc1ccc2c3ccccc3n(C)c2c1 | inactive |  |
| CCCSc1nc(N2CCOCC2)c2c(c1C#N)CCCC2 | inactive |  |
| CC1CCCC(NC(=O)c2ccc(F)c(S(=O)(=O)N3CCOCC3)c2)C1C (stereo unspecified) | inconclusive [inhibitor, single point] |  |
| C=CCc1ccccc1OCC(O)CN1CCN(CCN2C(=O)c3cccc4cccc(c34)C2=O)CC1 (stereo unspecified) | inconclusive [inhibitor, single point] |  |
| O=c1cc(CN2CCN(Cc3ccccc3)CC2)c2ccc(O)cc2o1 | inconclusive [inhibitor, single point] |  |
| FC(F)Oc1ccc(-c2csc(Cc3nnc4n3CCCCC4)n2)cc1 | inconclusive [inhibitor, single point] |  |
| CCN(CC)CCn1c(SCC(=O)Nc2cccc(OC)c2)nc2c(sc3ccccc32)c1=O | inconclusive [inhibitor, partial curve] |  |
| COc1ccc(C(Nc2cc(C)ccn2)c2ccc3ccc(C)nc3c2O)cc1 (stereo unspecified) | inconclusive [inhibitor, single point] |  |
| Nc1ccc(-c2nnn(CC(=O)N3CCCCC3)n2)cc1 | inactive |  |
| Cc1ccc(NC(=O)C(=O)NCC2CCCO2)cc1C (stereo unspecified) | inactive |  |
| Cc1ccc(C(=O)Nc2ccccc2C(=O)NC(Cc2ccccc2)C(=O)O)cc1 (stereo unspecified) | inconclusive [inhibitor, single point] |  |
| COc1c2c(nc3occc13)C(CC=C(C)C)(OC)C(O)CC2 (stereo unspecified) | inactive |  |
| CC(CN1CC(=O)NC(=O)C1)N1CC(=O)NC(=O)C1 (stereo unspecified) | inactive |  |
| COc1ccccc1CNc1ncc(-c2ccc(F)cc2)n1C | inconclusive [inhibitor, single point] |  |
| Cc1ccc(C2C3=C(Nc4[nH]n(-c5ccccc5)c(=O)c42)c2ccccc2C3=O)cc1 (stereo unspecified) | inconclusive [inhibitor, partial curve] |  |
| C=CCN1C[C@H](C)N([C@H](c2ccc(C(=O)N(CC)CC)cc2)c2cccc(OC)c2)C[C@H]1C | active: 4.78 µM |  |
| CCCc1ccc(C(=O)N2CCN(c3ccccc3OCC)CC2)cc1 | inconclusive [inhibitor, single point] |  |
| O=C1OC2(CCCCC2)CC2=C1C1O[C@](c3ccsc3)(Cc3c1ccc1ccccc31)O2 |  | inactive: 30.6% [at 5.75 µM] |
| O=C(CCNS(=O)(=O)c1ccc(Cl)cc1)NCc1ccccn1 | inconclusive [inhibitor, full curve] |  |
| Cc1ccc2nc(SCc3ccc([N+](=O)[O-])cc3)[nH]c2c1 | inconclusive [inhibitor, partial curve, poor fit] |  |
| CN(C(=O)c1ccccc1C(=O)OCC(=O)Nc1ccccc1)c1ccccc1 | inconclusive [inhibitor, single point] |  |
| C/C(=N/NS(=O)(=O)c1ccc(C)cc1C)c1ccc2c(c1)OCO2 | inconclusive [inhibitor, full curve, poor fit] |  |
